# Paper PMC8938451
# Amino acid sequences for entries named in this document (tags omitted).
# UniProt Q9NVJ2: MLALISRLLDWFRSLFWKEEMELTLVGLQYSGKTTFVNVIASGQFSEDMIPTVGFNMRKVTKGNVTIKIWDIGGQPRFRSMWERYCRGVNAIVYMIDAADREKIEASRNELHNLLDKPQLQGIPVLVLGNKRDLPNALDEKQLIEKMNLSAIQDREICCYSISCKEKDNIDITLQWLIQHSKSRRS
# Results are given in words; binding and its absence hold for the method and conditions named. Binding seen in cells or lysates may run through a third protein. Some binding calls cover weakened binding; strength is not graded here. Sequences can lack the tags named with a protein.
# What was measured:
# RUFY4-FLAG (human) = target: T1, RUFY4-FLAG (human) (UniProt Q6ZNE9); test: co-IP; lysates of HEK293T cells transfected with FLAG-tagged proteins, anti-FLAG magnetic agarose overnight at 4 °C (25 mM Tris-HCl pH 7.4, 0.15 M NaCl, 1 mM EDTA, 1% NP-40, 5% glycerol); immunoblot for endogenous ARL8A and ARL8B
# T1 sequence: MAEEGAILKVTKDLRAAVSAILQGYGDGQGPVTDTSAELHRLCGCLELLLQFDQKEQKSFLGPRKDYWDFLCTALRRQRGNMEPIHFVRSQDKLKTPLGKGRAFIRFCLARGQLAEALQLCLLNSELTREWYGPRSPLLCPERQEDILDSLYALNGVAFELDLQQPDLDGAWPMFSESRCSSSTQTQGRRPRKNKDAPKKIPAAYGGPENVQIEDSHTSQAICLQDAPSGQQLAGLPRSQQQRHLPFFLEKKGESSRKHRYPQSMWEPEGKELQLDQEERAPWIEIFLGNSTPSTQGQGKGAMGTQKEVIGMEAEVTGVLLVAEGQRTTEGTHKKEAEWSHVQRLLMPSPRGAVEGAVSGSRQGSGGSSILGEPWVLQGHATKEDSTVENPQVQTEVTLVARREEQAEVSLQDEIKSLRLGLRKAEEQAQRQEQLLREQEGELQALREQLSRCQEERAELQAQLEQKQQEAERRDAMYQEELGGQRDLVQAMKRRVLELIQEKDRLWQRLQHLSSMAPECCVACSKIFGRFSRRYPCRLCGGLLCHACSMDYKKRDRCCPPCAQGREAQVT
# RUFY3.1-GFP (human) = target: T2, RUFY3.1-GFP (human) (UniProt Q7L099); test: co-IP; lysates of HEK293T cells transfected with GFP-tagged proteins, magnetic GFP-Trap 2 h at 4 °C (25 mM HEPES pH 7.4, 0.2% NP-40, 0.5 mM Mg-ATP, 50 mM potassium acetate); immunoblot for endogenous DIC and p150Glued
# T2 sequence: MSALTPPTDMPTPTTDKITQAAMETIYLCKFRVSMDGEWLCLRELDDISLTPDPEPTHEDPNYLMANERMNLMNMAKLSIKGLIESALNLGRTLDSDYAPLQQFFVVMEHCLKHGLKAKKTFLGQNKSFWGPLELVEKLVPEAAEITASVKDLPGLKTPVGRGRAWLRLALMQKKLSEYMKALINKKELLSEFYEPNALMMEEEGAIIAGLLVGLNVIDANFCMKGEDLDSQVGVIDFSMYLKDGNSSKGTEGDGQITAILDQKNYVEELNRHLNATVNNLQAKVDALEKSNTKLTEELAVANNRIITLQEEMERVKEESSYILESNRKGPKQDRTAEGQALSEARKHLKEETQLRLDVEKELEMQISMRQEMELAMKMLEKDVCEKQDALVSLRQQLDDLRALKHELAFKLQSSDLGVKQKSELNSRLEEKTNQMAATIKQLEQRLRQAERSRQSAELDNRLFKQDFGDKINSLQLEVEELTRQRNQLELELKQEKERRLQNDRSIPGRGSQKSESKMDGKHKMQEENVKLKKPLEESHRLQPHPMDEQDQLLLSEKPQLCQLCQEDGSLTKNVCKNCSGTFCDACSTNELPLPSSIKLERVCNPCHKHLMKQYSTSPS
# RUFY4-GFP (human) = target: T3, RUFY4-GFP (human) (UniProt Q6ZNE9); test: as above
# T3 sequence: T1 sequence
# [1] = target: T4, 6His-StrepII-sfGFP-RUFY3 (human) (UniProt Q7L099); test: pull-down; 40 ug purified 6His-StrepII-sfGFP proteins mixed with cleared HEK293T lysate and Strep-Tactin Sepharose overnight at 4 °C (25 mM HEPES pH 7.4, 0.2% NP40, 1 mM Mg-ATP, 50 mM potassium acetate); immunoblot for endogenous DIC and p150Glued; only the target purified
# T4 sequence: T2 sequence
Substance,binding (RUFY4-FLAG (human)),binding (RUFY3.1-GFP (human)),binding (RUFY4-GFP (human)),binding [1]
"ARL8B, endogenous (from UniProt Q9NVJ2 1-186)",binds,,,
"p150^Glued subunit of dynactin, endogenous (from UniProt Q14203-1 1-1278)",,binds,binds,binds
